Measured values from PubChem BioAssay AID1347120 (National Center for Advancing Translational Sciences (NCATS), 2019).
Where “and” joins values, the source holds several entries; their conditions need not be identical. Equal values may be shown once. Among all 390,000 compounds or so, about 930 (0.24%) were called active. The inconclusive results got no clear call from the source; some entries with a clear call stand among them for comparison. Calls follow the shape of the dose curve; as a rule, active = well fitted activation curve with a large enough effect; inconclusive = small, poorly fitted or top-dose-only effect; inactive = no such curve, though single readings can be large or run the other way. Potencies of inconclusive entries are doubtful fits and often do not repeat.

experiment: qHTS for Suppressors of FUS Proteinopathy: Primary screen using FUS-linked yeast assay; also: nearly all actives have a fitted effect of over 55% in size; settings: S. cerevisiae FUS-expressing, OD600, 24 h; Potency: growth rescue; series mostly up to 76.6 µM
Summary of the method: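 Quantitative HTS measuring growth restoration of FUS-toxic yeast. Galactose-induced cells (OD 0.005) were exposed 24hr at 30C to compounds at several concentrations, then absorbance at 600 nm was recorded.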
Potency is read from the fitted curve at half-maximal effect; tags tell the direction and shape of the fitted curve.

SMILES	Potency
Cc1cc(=O)n2nc(N(C)CC(=O)NCc3ccc(Cl)cc3)sc2n1	inactive
Cc1cc(C(=O)Cn2nnc3ccccc3c2=O)c(C)n1Cc1cccs1	inconclusive: 39.8 µM [activator, single point]
Clc1ccc(CSc2cc3c(nn2)-c2ccccc2CC3)cc1Cl	inactive
Cc1cccc(Cn2cc(COC(=O)N(C)Cc3ccccc3)nn2)c1	inactive
CN(C(=O)c1cccc(NC(=O)Cc2ccc(NC(=O)C3CCCN(C(=O)C4CCCC4)C3)cc2)c1)C1CCCCC1 (stereo not drawn)	inconclusive: 22.4 µM [activator, single point]
CCc1cc2c(-c3ccccc3)cc(=O)oc2cc1OC(C)C(C)=O (stereo not drawn)	inconclusive: 44.7 µM [activator, single point]
CCOc1ccc(NC(=O)Cn2c(=O)oc3cc(S(=O)(=O)N4CCC(C)CC4)ccc32)cc1	inconclusive: 39.8 µM [activator, single point]
CCOc1ccccc1NC(=O)N1CCC(NC(=O)c2ccccc2C)CC1	inconclusive: 25.1 µM [activator, single point]
COc1ccc(OC)c(CCNC(=O)c2cc3c(=O)n(C)c4ccccc4c3n2C)c1	inconclusive: 31.6 µM [activator, single point]
COc1cccc(N2C(=O)CC(Nc3ccc(N4CCOCC4)cc3)C2=O)c1 (stereo not drawn)	inconclusive: 28.2 µM [activator, single point]
CC1=C(C(=O)Nc2ccccc2)C(c2cccc([N+](=O)[O-])c2)Nc2nc3ccccc3n21 (stereo not drawn)	inconclusive: 20 µM [activator, partial curve, poor fit]
Cc1nnc(C)n1/N=C/c1cc(Br)cc(Br)c1O	inactive
CC(=O)c1ccc(NC(=O)CSc2nccn2Cc2ccc3c(c2)OCO3)cc1	inactive
CCC1=C(OC(=O)N(CC)CC)N2C(=O)OC(=NCCc3c[nH]c4ccccc34)[C@]2(Cc2ccccc2)[C@H]2C1=CC[C@H]1C(=O)N(C)C(=O)[C@H]12	inconclusive: 25.1 µM [activator, partial curve, poor fit]
COc1cccc(C(=O)N(Cc2nc(-c3ccc(C)cc3)no2)C(C)C)c1	inactive
Cc1ccc(NC2=C(Cl)C(=O)OC2OC(=O)c2ccccc2C)cc1 (stereo not drawn)	inconclusive: 11.2 µM [activator, single point]
COc1ccc(C(=O)Oc2ccc(C(c3c(C)[nH][nH]c3=O)c3c(C)[nH][nH]c3=O)cc2OC)cc1	inconclusive: 17.8 µM [activator, single point]
O=C1CSC(c2cn(-c3ccccc3)nc2-c2cc3ccccc3oc2=O)N1Cc1ccco1 (stereo not drawn)	inconclusive: 25.1 µM [activator, partial curve]
O=C(CN1C(=O)CSc2ncccc21)Nc1cccc(Cl)c1	inactive
O=C(NC1CCN(Cc2ccccc2)CC1)c1ccccc1Cl	inactive
CCCc1nc2oc3c(=O)[nH]cnc3c2c2c1COC(C)(C)C2	inconclusive: 3.16 µM [activator, partial curve]

SMILES	Potency
CC(=O)N1CCCc2cc(S(=O)(=O)N3CCCC(C(=O)N4CCN(c5cc(C)ccc5C)CC4)C3)ccc21 (stereo not drawn)	inconclusive: 25.1 µM [activator, partial curve, poor fit] and active: 12.6 µM
O=C(COc1ccc(C(=S)N2CCC(Cc3ccccc3)CC2)cc1)N1CCOCC1	inconclusive: 35.5 µM [activator, single point]
Cc1cc(-c2csc(N)n2)c(C)n1CCc1ccccc1	inconclusive: 25.1 µM [activator, partial curve, poor fit]
COc1ccc(C(C(=O)NCc2ccccc2)N(C(=O)c2snc(C(N)=O)c2N)C2CCCC2)cc1 (stereo not drawn)	inconclusive: 25.1 µM [activator, single point]
CC(C)[C@H](NC(=O)c1cccc(CN(Cc2ccccc2)C(=O)/C=C/c2ccccc2)c1)C(=O)O	inconclusive: 25.1 µM [activator, single point]
CCOC(=O)Cn1nnnc1C(C(C)C)N(Cc1cc2c(C)cc(C)cc2[nH]c1=O)C1CCCC1 (stereo not drawn)	inconclusive: 28.2 µM [activator, single point]
COc1ccc(-c2cc(NC=O)c3ncc(-c4cccc(C(F)(F)F)c4)n3c2)c(OC)c1	inconclusive: 22.4 µM [activator, partial curve]
CCOC(=O)[C@@H]1[C@H]2COc3cc(OC)ccc3[C@@H]2N2C(=O)N(c3cccc(C)c3)C(=O)[C@]12C	inconclusive: 31.6 µM [activator, single point]
CCOC(=O)c1ccc(N2C(=O)c3n[nH]c(-c4cccs4)c3C2c2ccc(Cl)cc2Cl)cc1 (stereo not drawn)	inconclusive: 44.7 µM [activator, single point]
C#Cc1ccc([C@@H]2C=C(C(=O)N3CCOCC3)O[C@H](OCc3ccc(CO)cc3)C2)cc1	inconclusive: 25.1 µM [activator, partial curve]
NS(=O)(=O)c1ccc2c(c1)C1C=CCC1C(C1CC=CCC1)N2 (stereo not drawn)	inconclusive: 22.4 µM [activator, partial curve, poor fit]
Cn1cc(C(=O)N2CCN(C(=O)c3ccco3)CC2)c2c3ccccc3n(C)c2c1=O	inactive
Cc1ccc(/C=C/c2onc(C)c2S(=O)(=O)N2CCC(C(=O)N3CCCCC3)CC2)cc1	inconclusive: 11.2 µM [activator, partial curve, poor fit]
CCn1c(=O)n(CC(=O)N2CCCC2)c(=O)c2ccccc21	inactive
O=C(CSc1cn(CC(=O)N2CCCC2)c2ccccc12)Nc1cc(C(F)(F)F)ccc1Cl	inconclusive: 35.5 µM [activator, single point]
CC(C)Oc1ccc(S(=O)(=O)N2CCOCC2)cc1NC(=O)CSC(=S)N1CCCC1	inconclusive: 15.8 µM [activator, partial curve]
CCc1nc(Nc2cc(OC)ccc2OC)c2oc3ccccc3c2n1	inactive
S=c1[nH]nc(-c2n[nH]c3c2CCC3)n1N=Cc1c[nH]c2ccccc12	inactive
O=C(c1ccc(CS(=O)c2ccccc2Cl)o1)N1CCN(c2cccc(Cl)c2)CC1 (stereo not drawn)	inconclusive: 50.1 µM [activator, single point]
O=C(NCCO)C1CCN(C(=O)c2ccc(-c3ccccc3)cc2)CC1	inactive
Cc1ccc(Cl)cc1N1CCN(C(=O)CN(c2ccccc2)S(=O)(=O)N(C)C)CC1	inactive

SMILES	Potency
Cc1cccc(-n2c(SCC(=O)c3ccccc3)nnc2-c2ccc(Br)cc2)c1	inactive
Cc1ccc(Cl)cc1NS(=O)(=O)c1cc2c3c(c1)CC(=O)N3CCC2	inconclusive: 31.6 µM [activator, single point]
CC1(C)CC2CC(C)(CN2C(=O)c2cccs2)C1 (stereo not drawn)	inconclusive: 50.1 µM [activator, single point]
Nc1nnc(-c2ccc(Cl)cc2Cl)s1	inactive
CC1=C(C(=O)Nc2ccccc2)C(c2ccc(C)o2)n2c(s/c(=C\c3ccco3)c2=O)=N1 (stereo not drawn)	inconclusive: 31.6 µM [activator, partial curve, poor fit]
CCOC(=O)C1CCCN(S(=O)(=O)c2csc(C(N)=O)c2)C1 (stereo not drawn)	inactive
CCOc1ccc(-c2cc3nc(C4CCN(C(=O)OC(C)(C)C)CC4)c(C(=O)Nc4ccc(C)cc4C)cn3n2)cc1	inconclusive: 28.2 µM [activator, single point]
COC(=O)[C@]12C[C@H](CC(=O)N3CCN(C(=O)C4CC4)CC3)C(=O)N(Cc3cccc4ccccc34)C1=C[C@H](C1CCCC1)O[C@@H]2C	active: 20 µM
Cc1nc(Sc2ccccc2)c(C#N)c(C)c1[N+](=O)[O-]	inactive
O=C(NCCc1c[nH]c2ccccc12)C(=O)NCC1OCCN1S(=O)(=O)c1ccccc1 (stereo not drawn)	inconclusive: 31.6 µM [activator, partial curve, poor fit]
CCCCCCCCCNC(=O)[C@H](NC(=O)COc1ccccc1)[C@@H]1NC(C(=O)OC)C(C)(C)S1 (stereo partly drawn)	inconclusive: 35.5 µM [activator, partial curve, poor fit]
CCOc1cc(/C=N/NC(=O)Cn2nc([N+](=O)[O-])cc2C)cc(Br)c1OCc1ccccc1C	inconclusive: 3.16 µM [activator, full curve]
COc1ccc2nc(N3C(=O)C(O)=C(C(=O)c4ccco4)C3c3ccc(OC)c(OC)c3)sc2c1 (stereo not drawn)	inconclusive: 22.4 µM [activator, partial curve]
CCc1ccccc1NC(=O)CCS(=O)(=O)c1cccc2nonc12	inactive
O=C(CN(Cc1ccco1)Cc1ccco1)Nc1cc(S(=O)(=O)N2CCCCC2)ccc1Cl	inconclusive: 15.8 µM [activator, partial curve]
COc1ccc(C(CCNCc2ccc(N(C)C)cc2)c2ccccc2)cc1 (stereo not drawn)	inactive
CC(C)(C)c1ccc(C(=O)N2CCC2(C)C(=O)NCc2cccc3ccccc23)cc1 (stereo not drawn)	inconclusive: 31.6 µM [activator, single point]
COc1ccccc1NC(=O)c1sc2nc(C)c(C(=O)Nc3ccc(C)cc3C)c(-c3ccc(C)o3)c2c1N	inconclusive: 39.8 µM [activator, single point]
Cc1sc2ncnc(N(C)C3CCCCC3)c2c1C	inactive
CCOC(=O)c1c(NC(=O)CSc2nnc(C)s2)sc2c1CCN(C)C2	active: 25.1 µM
COc1ccc(NC(=O)/C=C\C(=O)N(c2ccc(C(C)C)cc2)C(C(=O)NCc2ccco2)c2ccc(F)cc2)cc1 (stereo not drawn)	inconclusive: 25.1 µM [activator, partial curve, poor fit]
